Measurements taken from article PMC4336329 (PLoS ONE, 2015).
Among all 310,000 compounds or so, about 14,000 (4.5%) showed an effect of 50% or more. Effects have a minus sign here. This is one part of the list.

These molecules were tested against human ether-à-go-go-related gene (hERG) potassium channel (human, UniProt Q12809) (assay: primary screen, population patch clamp on CHO cells stably expressing hERG).
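Note: peak tail current of the secondary pulse compared with the same well before compound.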

Sequence of human ether-à-go-go-related gene (hERG) potassium channel (Q12809 whole entry, looked up): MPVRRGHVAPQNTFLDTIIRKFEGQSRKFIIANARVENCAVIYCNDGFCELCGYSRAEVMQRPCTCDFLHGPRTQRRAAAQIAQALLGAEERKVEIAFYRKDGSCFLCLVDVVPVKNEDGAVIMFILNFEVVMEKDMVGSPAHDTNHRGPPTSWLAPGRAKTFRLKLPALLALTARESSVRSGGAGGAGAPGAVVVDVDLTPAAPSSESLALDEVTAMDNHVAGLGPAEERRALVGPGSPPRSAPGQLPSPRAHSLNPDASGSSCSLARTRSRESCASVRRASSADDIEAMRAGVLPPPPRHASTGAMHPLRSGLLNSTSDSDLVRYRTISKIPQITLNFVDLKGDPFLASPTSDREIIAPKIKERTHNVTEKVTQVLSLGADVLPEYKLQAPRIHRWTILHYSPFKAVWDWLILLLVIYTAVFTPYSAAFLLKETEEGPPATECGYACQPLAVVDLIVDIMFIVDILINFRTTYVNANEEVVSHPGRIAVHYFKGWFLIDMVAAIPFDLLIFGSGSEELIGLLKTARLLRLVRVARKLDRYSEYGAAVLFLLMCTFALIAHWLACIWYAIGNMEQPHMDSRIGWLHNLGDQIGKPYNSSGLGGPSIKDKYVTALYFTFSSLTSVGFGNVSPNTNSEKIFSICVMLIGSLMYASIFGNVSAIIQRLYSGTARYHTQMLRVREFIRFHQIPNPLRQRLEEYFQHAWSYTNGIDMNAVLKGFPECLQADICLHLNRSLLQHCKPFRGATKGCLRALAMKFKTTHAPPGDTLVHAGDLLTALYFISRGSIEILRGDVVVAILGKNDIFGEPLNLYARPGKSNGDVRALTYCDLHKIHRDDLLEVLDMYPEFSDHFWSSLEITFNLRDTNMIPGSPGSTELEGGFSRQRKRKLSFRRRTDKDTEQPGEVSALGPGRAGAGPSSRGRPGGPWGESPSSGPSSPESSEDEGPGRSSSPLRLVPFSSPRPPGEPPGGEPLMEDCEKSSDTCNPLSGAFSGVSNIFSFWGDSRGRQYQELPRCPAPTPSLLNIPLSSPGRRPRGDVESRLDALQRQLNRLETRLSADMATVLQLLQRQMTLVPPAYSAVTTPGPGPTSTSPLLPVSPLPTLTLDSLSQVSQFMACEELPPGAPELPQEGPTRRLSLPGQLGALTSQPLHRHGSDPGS

SMILES | hERG current change (%, negative = inhibition) at 10uM [%]
C#Cc1cccc(C(=O)N2CCCC(Nc3cccc(F)c3)C2)c1 (centres unmarked) | -9.07
CC(=O)c1cccc(NC(=O)N2CCCC2C(=O)NC2CCCCC2)c1 (centres unmarked) | 17.2
Cc1ccc(S(=O)(=O)N2CC(C)N(S(C)(=O)=O)C2)cc1 (centres unmarked) | 18.5
CC(C)NC(=O)C1COc2ccccc2O1 (centres unmarked) | 16.7
O=C(Nc1ccccc1)Nc1ccc2ccccc2n1 | 9.86
Cn1c(=O)oc2cc(S(=O)(=O)CCC(=O)Nc3ccccc3)ccc21 | 16.8
CC(C)OC(=O)Nc1ccc(N=C(N)N[N+](=O)[O-])cc1 | 2.71
CCn1c(CN2CCN(Cc3ccc(C)cc3)C(CCO)C2)nc2ccccc21 (centres unmarked) | -74.7
O=C(CCSc1ccccc1Cl)Nc1cccc([N+](=O)[O-])c1 | -6.62
CC(C)(C)[C@H]1C=C(C(=O)Nc2ccccc2)O[C@@H](OCCCCO)C1 | 2.68
COc1ccc(CCNC(=O)CCCCCN2C(=O)[C@@H]3Cc4ccccc4CN3C2=O)cc1OC | -24.4
Cc1ccccc1CN(c1ccc(C(N)=O)cc1)S(C)(=O)=O | -11
CC(=O)Nc1nc(-c2cc([N+](=O)[O-])cs2)cs1 | 18.8
N#CC1=C(N)NC(SCC(=O)O)=C(C#N)C12CCCC2 | -7.59
Cc1ccc(S(=O)(=O)N2CCN(C(=O)COC(=O)CNC(=O)c3ccc(Cl)cc3Cl)CC2)cc1 | 9.45
CCCn1c(NC(=O)c2ccccc2Br)nc2ccccc21 | 16.2
COc1ccc(N2CCN(CC(O)COc3ccc([N+](=O)[O-])cc3)CC2)cc1.Cl (centres unmarked) | -62.5
COc1ccn(C)c(=O)c1C#N | 12.8
Cc1sc2ncnc(NCC(O)c3ccccc3)c2c1C (centres unmarked) | 17.7
Cc1ccc(CN(C)CC(=O)Nc2ccccc2C(=O)NC2CC2)o1 | -7.18
O=C(COC(=O)c1n[nH]c2ccccc12)Nc1ccccc1 | -3.66
COc1cccc(NC(=O)C2CCC2)c1 | 8.83

SMILES | hERG current change (%, negative = inhibition) at 10uM [%]
Cl.OC(COCc1ccccc1F)CN1CCCCC1 (centres unmarked) | 5.73
COc1ccc(-c2c3c(nc4sc(C(=O)Nc5cc(C)on5)c(N)c24)CCC3)cc1 | -10.3
CCC(=O)c1ccc(OCC(=O)OCC(=O)NC2CCCC2)cc1 | 13.8
Cc1ccc(C)c(NC(=O)C2CC(O)CN2C(=O)OC(C)(C)C)c1 (centres unmarked) | 12.5
Cc1ccc(-n2c(SCC(=O)NC3CCS(=O)(=O)C3)nc3ccccc3c2=O)cc1C (centres unmarked) | -11.4
CN(C(=O)Nc1ccc(S(=O)(=O)N(C)C)cc1)C1CCCCC1 | 9.24
CC1CCN(C(=O)CSc2nnc(-c3cccs3)o2)CC1 | -16.5
CCN1C(=O)c2ccccc2Sc2ccc(C(=O)NCCCN(CC(C)C)CC(C)C)cc21 | -64.3
CS(=O)(=O)N1CCN(c2ccc(NC(=O)CSc3nnc(-c4ccco4)o3)cc2)CC1 | 32.9
CCN1CCN(c2ncnc3sc(C(=O)Nc4ccccc4F)c(C)c23)CC1 | -67
O=C(CSc1nnc2n1CCCN2)c1ccc([N+](=O)[O-])cc1 | -49.8
O=C(O)C1CCCCC1C(=O)Nc1ccc(F)c(F)c1 (centres unmarked) | 3.08
COCC(C)n1c(SCC(=O)N2CCCCC2)nc2ccccc2c1=O (centres unmarked) | -25.9
COCC(C)n1c(C)cc(C(=O)CN2C(=O)NC3(CCCCC3C)C2=O)c1C (centres unmarked) | -8.29
CC1(c2ccccc2Cl)NC(=O)N(CC(=O)N2CCN(S(=O)(=O)c3ccccc3)CC2)C1=O (centres unmarked) | 7.55
Cn1c(N)c(C(=O)Nc2ccccc2F)sc1=S | 2.38
COc1ccc(C(=O)Nc2nccs2)cc1[N+](=O)[O-] | 20.4
COc1ccc(OCC(=O)N2CCN(Cc3ccc(SC)cc3)CC2)cc1.O=C(O)C(=O)O | -50.9
Cc1ccccc1S(=O)(=O)Cc1ccc(C(=O)N2CCN(C3CCCCC3)CC2)o1 | -39.3
COc1ccc([C@H]2CC(=O)C=C(c3cc(F)ccc3F)C2)cc1OC | -13.3
O=C(CCCOc1ccc(Cl)cc1Cl)NNC(=O)c1ccc(NC(=O)c2ccccc2)cc1 | 18.2
COc1ccc(CNS(=O)(=O)c2ccc(C3CNC(=O)C3)cc2)cc1 (centres unmarked) | -23.6
